In US11339383B2, “G proteins” (HEPTARES THERAPEUTICS LIMITED, priority 2016, dated 2022):
Residue numbers refer to the chain shown, from its start. In names and notes the source's numbering stands.

Legend:
β1AR-WT [1] = target: T1, β1AR-WT (Meleagris gallopavo, UniProt P07700, C116L); assay: Saturation binding assay, ^3H-DHA binding to β1AR-WT; parameters: species or system turkey; conditions: insect cell membranes, 20° C., read-out: dissociation constant (Kd) of ^3H-DHA binding to β1AR-WT
Method: FIG. 2. Saturation binding data for β1AR constructs. […] Data represent mean±SEM of three independent experiments. Curves shown are from a representative experiment performed in duplicate.
Insect cells expressing β1AR were resuspended in 1 ml of assay buffer (20 mM HEPES, pH 7.5, 100 mM NaCl), supplemented with Complete EDTA-free protease inhibitors (Roche). Cells were broken by 10 passages through a bent 26 G needle. Cell debris was removed by centrifugation (3000 g for 5 mins at 4° C.). The supernatant was diluted and 2×0.96 ml aliquots taken for each sample. Alprenolol (120 μl) was added to the negative sample (1 mM final concentration) and assay buffer (120 μl) was added to the positive sample. Samples were aliquoted (12×108 μl) into a PCR plate. [^3H]-dihydroalprenolol (12 μl) was added to each well (to give final concentrations in the range: 2.5 nM-2.56 μM). Samples were mixed and incubated at 20° C. for 2 h. Samples (2×50 μl duplicates) were vacuum filtered through 96-well glass fibre filter plates (Merck Millipore), pre-soaked with PEI (0.1%). Each well was washed with assay buffer (3×200 μl). Filters were dried, punched into scintillation vials and 4 ml Ultima Gold scintillant (Perkin Elmer) was added. Radioactivity was quantified by scintillation counting (1 min per sample) using a Tri-Carb counter (Perkin Elmer). Data for negative samples were subtracted from positive samples. […]

β1AR-WT [2] = target: T1, β1AR-WT; format: binding, turkey; conditions: relative to uncoupled 40 nM, membranes, 20° C.
β1AR-WT [3] = target: T1, β1AR-WT; assay: Thermostability measurement of β1AR-WT complexes (^3H-norepinephrine); format: biochemical, turkey; conditions: for apparent Tm of β1AR-WT complex in DDM: dodecylmaltoside 0.1%, ^3H-norepinephrine 200 nM, 30 min heating, uncoupled β1AR-WT 25.9° C.
Method: A new parental construct (mini Gs161), which contained a modified N-terminus and linker region (see Table 2), was used to combine mutations. […]. The agonist ^3H-norepinephrine (^3H-NE) was used in the Tm assay, however due to the high background signal associated with this ligand, a maximum concentration of 200 nM could be used in the assay. […] Therefore, Tm values quoted for uncoupled β1AR-WT are under non-saturating agonist conditions, but β1AR-WT complexes, which have higher agonist affinity, are under agonist saturating conditions.
Insect cells expressing wild type β1AR-WT were resuspended in 1 ml of assay buffer (25 mM HEPES, pH 7.5, 400 mM NaCl, 1 mM MgCl2, 1 mM ascorbate, 0.1% BSA, 0.004% bacitracin), supplemented with Complete EDTA-free protease inhibitors (Roche). Cells were broken by 10 passages through a bent 26 G needle. Cell debris was removed by centrifugation (3000 g for 5 mins at 4° C.). The supernatant was diluted and 2×0.78 ml aliquots taken for each sample. Norepinephrine (120 μl) was added to the negative sample (200 μM final concentration) and assay buffer (120 μl) was added to the positive sample. Binding partner (120 μl) was added to both samples (25 μM final concentration). ^3H-norepinephrine (120 μl), prepared in buffer containing 1 U/ml apyrase (Sigma-Aldrich), was added to both samples (200 nM final concentration). Samples were mixed and incubated at 4° C. for 1 h. Detergent (60 μl) was added to both samples (final concentration: DDM=0.1%; DM=0.13%; OG=0.8%). Samples were mixed and incubated on ice for 1 h. Insoluble material was removed by centrifugation (17000 g for 5 mins at 4° C.). The supernatant was aliquoted (9×120 μl) into 0.2 ml PCR tubes. Each sample was heated to the desired temperature (between 4 and 50° C.) for exactly 30 minutes, followed by quenching on ice for 30 minutes. […] Plates were centrifuged (1800 rpm for 5 mins at 4° C.). The filtrate was transferred to Isoplates (Perkin Elmer), and 200 μl Optiphase Supermix scintillant (Perkin Elmer) was added to each well. Radioactivity was quantified by scintillation counting (1 min per well) using a MicroBeta counter (Perkin Elmer). Data for negative samples were subtracted from positive samples. Data were plotted graphically and apparent melting temperature (Tm) values derived from sigmoidal dose-response (variable slope) analysis.

CCCc1ccccc1OCC(O)CNC(C)C (stereo not shown) [^3H-DHA, ^3H-dihydroalprenolol]
Kd (β1AR-WT [1]): 5 ± 0.6 nM

Gs: non-lipidated Gs (Gαsβ1γ2) heterotrimer [reference compound]
shift of isoprenaline Ki of β1AR-WT in response to binding partner (β1AR-WT [2]): 2.4 fold

B1: Mini Gs164: A249D and switch III deletion (protein)
chain: MGHHHHHHANKKIEKQLQKDKQVYRATHRLLLLGAGESGKSTIVKQMRILHGGGGGETKFQVDKVNFHMFDVGGQRDERRKWIQCFNDVTAIIFVVDSSSYNRLQEALNLFKSIWNNRWLRTISVILFLNKQDLLAEKVLAGKSKIEDYFPEFARYTTPEDATPEPGEDPRVTRAKYFIRDEFLRISTASGDGRHYCYPHFTCAVDTENIRRVFNDCRDIIQRMHLRQYELL
modifications: MINI GS164
notes: A249D and switch III deletion
apparent Tm of β1AR-WT complex in DDM (β1AR-WT [3]): 28.6 (n = 1) ° C. | apparent Tm of β1AR-WT complex in DDM (β1AR-WT [3]; listed as mini Gs164): 28.6 °C

B2: Mini Gs165: A249D-S252D-SIII (protein)
chain: B1 chain with S100D
modifications: MINI GS165
notes: A249D-S252D-SIII
apparent Tm of β1AR-WT complex in DDM (β1AR-WT [3]): 28.5 ± 0.2 (n = 2) ° C.

B3: Mini Gs169: A249D-S252D-SIII- (mutation list truncated in table) (protein)
chain: B1 chain with S100D, L110D
modifications: MINI GS169
apparent Tm of β1AR-WT complex in DDM (β1AR-WT [3]): 28.8 (n = 1) ° C.

B4: Mini Gs183: G49D-E50N-A249D-S252D-SIII-L272D (protein)
chain: B1 chain with G36D, E37N, S100D, L110D
modifications: MINI GS183
notes: G49D-E50N-A249D-S252D-SIII-L272D
apparent Tm of β1AR-WT complex in DDM (β1AR-WT [3]): 28.7 ± 0.2 (n = 4) ° C.

B5: Mini Gs393 (protein)
chain: MGHHHHHHENLYFQGIEKQLQKDKQVYRATHRLLLLGADNSGKSTIVKQMRILHGGSGGSGGTSGIFETKFQVDKVNFHMFDVGGQRDERRKWIQCFNDVTAIIFVVDSSDYNRLQEALNDFKSIWNNRWLRTISVILFLNKQDLLAEKVLAGKSKIEDYFPEFARYTTPEDATPEPGEDPRVTRAKYFIRDEFLRISTASGDGRHYCYPHFTCAVDTENARRIFNDCRDIIQRMHLRQYELL
modifications: N-terminal His tag, TEV site; MINI GS393
apparent Tm of complex higher than that of the Nb80 complex by (β1AR-WT [3]; DDM): 2.1 °C | apparent Tm of complex higher than uncoupled β1AR-WT by (β1AR-WT [3]; DDM): 8.2 °C | apparent Tm of complex lower than that of the Gs-Nb35 complex by (β1AR-WT [3]; DDM): 1.7 °C | apparent Tm of complex higher than that of the Nb80 complex by (β1AR-WT [3]; DM): 1.9 °C | apparent Tm of complex higher than uncoupled β1AR-WT by (β1AR-WT [3]; DM): 10.1 °C | apparent Tm of complex lower than that of the Gs-Nb35 complex by (β1AR-WT [3]; DM): 0.6 °C | apparent Tm of complex higher than that of the Gs-Nb35 complex by (β1AR-WT [3]; NG): 5.7 °C | apparent Tm of complex higher than that of the Nb80 complex by (β1AR-WT [3]; NG): 8.0 °C | apparent Tm of complex higher than that of the Gs-Nb35 complex by (β1AR-WT [3]; OG): 6.1 °C | apparent Tm of complex higher than that of the Nb80 complex by (β1AR-WT [3]; OG): 5.4 °C | apparent Tm of β1AR-WT complex in DM (β1AR-WT [3]; decylmaltoside, uncoupled β1AR-WT 20.4° C.): 30.5 °C | apparent Tm of β1AR-WT complex in DDM (β1AR-WT [3]): 34.1 °C | apparent Tm of β1AR-WT complex in NG (β1AR-WT [3]; nonylglucoside, uncoupled β1AR-WT did not survive solubilisation): 24.7 °C | apparent Tm of β1AR-WT complex in OG (β1AR-WT [3]; octylglucoside, uncoupled β1AR-WT did not survive solubilisation): 19.7 °C

B6: Mini Gs340: mini Gs199 with I372A (protein)
chain: MGHHHHHHANKKIEKQLQKDKQVYRATHRLLLLGADNSGKSTIVKQMRILHGGGGGGGGTSGIFETKFQVDKVNFHMFDVGGQRDERRKWIQCFNDVTAIIFVVDSSDYNRLQEALNDFKSIWNNRWLRTISVILFLNKQDLLAEKVLAGKSKIEDYFPEFARYTTPEDATPEPGEDPRVTRAKYFIRDEFLRISTASGDGRHYCYPHFTCAVDTENARRVFNDCRDIIQRMHLRQYELL
modifications: MINI GS340
notes: mini Gs199 with I372A
apparent Tm of β1AR-WT complex in DDM (β1AR-WT [3]): 34.0 (n = 1) ° C. | apparent Tm of β1AR-WT complex in DDM (β1AR-WT [3]; listed as I372A): 34.00 °C

B7: Mini Gs254: mini Gs199 with M60A (protein)
chain: B6 chain with M47A, A218I
modifications: MINI GS254
notes: mini Gs199 with M60A
apparent Tm of β1AR-WT complex in DDM (β1AR-WT [3]): 31.5 ± 0.3 (n = 5) ° C.

B8: Mini Gs199: mini Gs, Gly8 linker, switch III deleted, G49D E50N A249D S252D L272D (protein)
chain: B6 chain with A218I
modifications: MINI GS199
notes: mini Gs, Gly8 linker, switch III deleted, G49D E50N A249D S252D L272D
apparent Tm of β1AR-WT complex in DDM (β1AR-WT [3]): 29.2 ± 0.2 (n = 17) ° C.

B9: Mini Gs352: mini Gs199 with L63Y-I372A (protein)
chain: B6 chain with L50Y
modifications: MINI GS352
notes: mini Gs199 with L63Y-I372A
apparent Tm of β1AR-WT complex in DDM (β1AR-WT [3]): 34.5 (n = 1) ° C.

B10: Mini Gs350: mini Gs199 with L63Y (protein)
chain: B6 chain with L50Y, A218I
modifications: MINI GS350
notes: mini Gs199 with L63Y
apparent Tm of β1AR-WT complex in DDM (β1AR-WT [3]): 30.9 ± 0.4 (n = 2) ° C.

B11: Mini GS303: mini Gs199 with V375I (protein)
chain: B6 chain with A218I, V221I
modifications: MINI GS303
notes: mini Gs199 with V375I
apparent Tm of β1AR-WT complex in DDM (β1AR-WT [3]): 31.5 ± 0.6 (n = 3) ° C.

B12: Mini Gs345: mini Gs199 with I372A-V375I; detergent stabilised construct (protein)
chain: B6 chain with V221I
modifications: MINI GS345
notes: mini Gs199 with I372A-V375I; detergent stabilised construct
apparent Tm of complex higher than that of the Nb80 complex by (β1AR-WT [3]; DDM): 3.0 °C | apparent Tm of complex lower than that of the Gs-Nb35 complex by (β1AR-WT [3]; DDM): 0.8 °C | apparent Tm of β1AR-WT complex in DDM (β1AR-WT [3]): 35.0 (n = 1) ° C. | apparent Tm of β1AR-WT complex in DDM (β1AR-WT [3]; listed as I372A-V375I): 35.0 °C

B13: Mini Gs162: mini Gs161 with A249D (protein)
chain: MGHHHHHHANKKIEKQLQKDKQVYRATHRLLLLGAGESGKSTIVKQMRILHGGGGGETKFQVDKVNFHMFDVGGQRDERRKWIQCFNDVTAIIFVVDSSSYNMVIREDNQTNRLQEALNLFKSIWNNRWLRTISVILFLNKQDLLAEKVLAGKSKIEDYFPEFARYTTPEDATPEPGEDPRVTRAKYFIRDEFLRISTASGDGRHYCYPHFTCAVDTENIRRVFNDCRDIIQRMHLRQYELL
modifications: MINI GS162
notes: mini Gs161 with A249D
apparent Tm of β1AR-WT complex in DDM (β1AR-WT [3]): 25.1 (n = 1) ° C. | apparent Tm of β1AR-WT complex in DDM (β1AR-WT [3]; listed as mini Gs162): 25.1 °C
